# The list shows a part of the results. Sequences were assembled here from the parent chain. Values near 0.05 are background.
# B1: TEV protease; numbered along this chain (parent)
# chain: MGESLFKGPRDYNPISSSICHLTNESDGHTTSLYGIGFGPFIITNKHLFRRNNGTLVVQSLHGVFKVKDTTTLQQHLVDGRDMIIIRMPKDFPPFPQKLKFREPQREERICLVTTNFQTKSMSSMVSDTSCTFPSGDGIFWKHWIQTKDGQCGSPLVSTRDGFIVGIHSASNFTNTNNYFTSVPKNFMELLTNQEAQQWVSGWRLNADSVLWGGHKVFMVKPEEPFQPVKEATQL
# Variants of: B1
# Assay: raw area under fraction-flipped curve 0-4 h after induction (AUC4h, not background-subtracted), DNA-recorder readout of cleavage of the substrate (dimensionless); higher = more cleavage of the substrate by the protease variant
# Details: temperature: 34 °C; time window: 0-4 h after rhamnose induction
# Protocol: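 In vivo DNA recorder in E. coli TOP10(DE3) ΔrhaA at 34 °C. Each TEVp single-site mutant (parent TEVp 0) is paired with a single-site variant of the 7-mer TEVs (canonical ENLYFQ|S). The substrate sits between flexible linkers in a Bxb1-sfGFP-TEVs-SsrA fusion, so cleavage stabilises Bxb1 and speeds flipping of a recombination array, read by NGS. The value is the raw area under the fraction-flipped curve over 0-4 h after rhamnose induction (AUC4h), with ≥20 reads per time point. It is not background-subtracted; inactive controls average about 0.047.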
# 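Also: Bxb1 expression induced with 0.2% (w/v) L-rhamnose at OD600 near 0.5, cultures sampled hourly, flipped fraction per protease–substrate barcode pair counted by paired-end Illumina sequencing.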
Variant,area with substrate ENAYFQS,area with substrate ENCYFQS,area with substrate ENDYFQS,area with substrate ENEYFQS,area with substrate ENFYFQS,area with substrate ENGYFQS,area with substrate ENHYFQS,area with substrate ENKYFQS,area with substrate ENNYFQS,area with substrate ENQYFQS,area with substrate ENSYFQS,area with substrate ENTYFQS,area with substrate ENVYFQS,area with substrate ENYYFQS,area with substrate ENIYFQS,area with substrate ENMYFQS,area with substrate ENPYFQS,area with substrate ENRYFQS,area with substrate ENWYFQS
MGESLFKGPRDYNPISSSICHLTNESDGSTTSLYGIGFGPFIITNKHLFRRNNGTLVVQSLHGVFKVKDTTTLQQHLVDGRDMIIIRMPKDFPPFPQKLKFREPQREERICLVTTNFQTKSMSSMVSDTSCTFPSGDGIFWKHWIQTKDGQCGSPLVSTRDGFIVGIHSASNFTNTNNYFTSVPKNFMELLTNQEAQQWVSGWRLNADSVLWGGHKVFMVKPEEPFQPVKEATQL [H29S],0.0562,0.0655,0.0632,0.0239,0.0588,0.07,0.0589,0.0721,0.0684,0.0646,0.0557,0.0723,0.08,0.0584,–,–,–,–,–
MGESLFKGPRDYNPISSSICHLTNESDGVTTSLYGIGFGPFIITNKHLFRRNNGTLVVQSLHGVFKVKDTTTLQQHLVDGRDMIIIRMPKDFPPFPQKLKFREPQREERICLVTTNFQTKSMSSMVSDTSCTFPSGDGIFWKHWIQTKDGQCGSPLVSTRDGFIVGIHSASNFTNTNNYFTSVPKNFMELLTNQEAQQWVSGWRLNADSVLWGGHKVFMVKPEEPFQPVKEATQL [H29V],0.0585,–,0.0687,0.0857,–,–,–,–,0.0655,0.0543,0.0588,0.0715,0.0766,–,0.121,0.059,0.049,0.0473,–
MGESLFKGPRDYNPISSSICHLTNESDGHNTSLYGIGFGPFIITNKHLFRRNNGTLVVQSLHGVFKVKDTTTLQQHLVDGRDMIIIRMPKDFPPFPQKLKFREPQREERICLVTTNFQTKSMSSMVSDTSCTFPSGDGIFWKHWIQTKDGQCGSPLVSTRDGFIVGIHSASNFTNTNNYFTSVPKNFMELLTNQEAQQWVSGWRLNADSVLWGGHKVFMVKPEEPFQPVKEATQL [T30N],0.0546,0.0759,0.0526,0.0545,0.059,–,0.0483,0.0637,0.0616,0.0598,–,–,0.037,0.0505,0.103,–,0.0581,0.0541,–
MGESLFKGPRDYNPISSSICHLTNESDGHQTSLYGIGFGPFIITNKHLFRRNNGTLVVQSLHGVFKVKDTTTLQQHLVDGRDMIIIRMPKDFPPFPQKLKFREPQREERICLVTTNFQTKSMSSMVSDTSCTFPSGDGIFWKHWIQTKDGQCGSPLVSTRDGFIVGIHSASNFTNTNNYFTSVPKNFMELLTNQEAQQWVSGWRLNADSVLWGGHKVFMVKPEEPFQPVKEATQL [T30Q],0.0637,–,0.042,0.0533,0.0612,0.0595,0.0512,0.0633,–,–,0.0589,0.0671,0.0711,–,0.115,0.0865,–,0.0518,–
MGESLFKGPRDYNPISSSICHLTNESDGHTDSLYGIGFGPFIITNKHLFRRNNGTLVVQSLHGVFKVKDTTTLQQHLVDGRDMIIIRMPKDFPPFPQKLKFREPQREERICLVTTNFQTKSMSSMVSDTSCTFPSGDGIFWKHWIQTKDGQCGSPLVSTRDGFIVGIHSASNFTNTNNYFTSVPKNFMELLTNQEAQQWVSGWRLNADSVLWGGHKVFMVKPEEPFQPVKEATQL [T31D],0.0531,0.0441,0.0693,0.0536,0.0476,–,0.0405,0.0676,0.058,0.067,0.076,0.0716,0.0798,0.0669,0.108,0.104,–,–,0.0621
MGESLFKGPRDYNPISSSICHLTNESDGHTKSLYGIGFGPFIITNKHLFRRNNGTLVVQSLHGVFKVKDTTTLQQHLVDGRDMIIIRMPKDFPPFPQKLKFREPQREERICLVTTNFQTKSMSSMVSDTSCTFPSGDGIFWKHWIQTKDGQCGSPLVSTRDGFIVGIHSASNFTNTNNYFTSVPKNFMELLTNQEAQQWVSGWRLNADSVLWGGHKVFMVKPEEPFQPVKEATQL [T31K],0.0544,0.0617,0.0598,–,0.0619,0.0548,–,–,0.0573,0.0612,0.0566,0.0858,0.0642,0.0638,0.0558,0.0613,0.0551,–,0.0595
MGESLFKGPRDYNPISSSICHLTNESDGHTNSLYGIGFGPFIITNKHLFRRNNGTLVVQSLHGVFKVKDTTTLQQHLVDGRDMIIIRMPKDFPPFPQKLKFREPQREERICLVTTNFQTKSMSSMVSDTSCTFPSGDGIFWKHWIQTKDGQCGSPLVSTRDGFIVGIHSASNFTNTNNYFTSVPKNFMELLTNQEAQQWVSGWRLNADSVLWGGHKVFMVKPEEPFQPVKEATQL [T31N],0.0569,0.0633,0.0619,0.061,0.0511,0.0723,0.0509,0.0613,0.0532,0.0668,0.0589,0.0589,0.0647,0.0581,0.135,0.0844,–,0.0571,–
MGESLFKGPRDYNPISSSICHLTNESDGHTSSLYGIGFGPFIITNKHLFRRNNGTLVVQSLHGVFKVKDTTTLQQHLVDGRDMIIIRMPKDFPPFPQKLKFREPQREERICLVTTNFQTKSMSSMVSDTSCTFPSGDGIFWKHWIQTKDGQCGSPLVSTRDGFIVGIHSASNFTNTNNYFTSVPKNFMELLTNQEAQQWVSGWRLNADSVLWGGHKVFMVKPEEPFQPVKEATQL [T31S],0.057,0.0473,0.0633,0.0518,0.0559,0.0606,0.053,0.0563,0.0676,0.0555,0.0571,0.067,0.0541,0.0503,0.0706,–,0.0587,–,0.0095
MGESLFKGPRDYNPISSSICHLTNESDGHTTSWYGIGFGPFIITNKHLFRRNNGTLVVQSLHGVFKVKDTTTLQQHLVDGRDMIIIRMPKDFPPFPQKLKFREPQREERICLVTTNFQTKSMSSMVSDTSCTFPSGDGIFWKHWIQTKDGQCGSPLVSTRDGFIVGIHSASNFTNTNNYFTSVPKNFMELLTNQEAQQWVSGWRLNADSVLWGGHKVFMVKPEEPFQPVKEATQL [L33W],0.0647,0.0642,0.0556,0.069,0.0696,0.0559,0.0816,0.0598,0.0627,0.0547,0.0585,0.0593,0.0551,0.062,0.048,0.0587,0.0631,0.0954,–

# From the supplement of paper PMC12217912
